Results from patent US20180244743A1 (Novo Nordisk, published 2018).

biological target: T1, human insulin-like growth factor 1 receptor (human); assay: SPA competition with [125I-Tyr31]-human IGF-1, membrane-associated hIGF-1R, 0.1% HSA (Ex 26)
T1 construct: whole, on cells; Full-length receptor in purified BHK plasma membranes, not intact cells; also called hIGF1R; IGF-1R
Experimental: The relative binding affinity for either of the membrane-associated human IR-A, IR-B or IGF-1R is determined by competition binding in a SPA setup. IR assays are performed in duplicate in 96-well OptiPlates (Perkin-Elmer Life Sciences). […] Assays are terminated by centrifugation of the plate at 2000 rpm for 2 minutes and bound radioactivity quantified by counting on a TopCount NXT (Perkin-Elmer Life Sciences).
IGF-1R assays are conducted essentially as for the IR binding assays except that membrane-associated IGF-1R and 50 pM [¹²⁵I-Tyr31]-human IGF-1 were employed.

Binder	relative binding affinity (% rel to HI)
A21A, B3E, desB27, B29K(N(eps)tetradecanedioyl-gGlu-2×OEG), desB30 human insulin (ligand, B29K (residue 28 of the desB27 chain) acylated on the epsilon nitrogen with tetradecanedioyl-gGlu-2×OEG, also called Ex. No. 5) chain 1: not shown chain 2: FVEQHLCGSHLVEALYLVCGERGFFYPK	22.3 % rel to HI
A8H, A21G, B3E, desB27, B29K(N(eps)tetradecanedioyl-gGlu-2×OEG), desB30 human insulin (ligand, B29K (residue 28 of the desB27 chain) acylated on the epsilon nitrogen with tetradecanedioyl-gGlu-2×OEG, also called Ex. No. 3) chain 1: not shown chain 2: FVEQHLCGSHLVEALYLVCGERGFFYPK	11.1 % rel to HI
A8H, B3E, desB27, B29K(N(eps)tetradecanedioyl-gGlu-2×OEG), desB30 human insulin (ligand, B29K (residue 28 of the desB27 chain) acylated on the epsilon nitrogen with tetradecanedioyl-gGlu-2×OEG, Two-chain, disulfide-linked insulin derivative; also called Ex. No. 1) chain 1: not shown chain 2: FVEQHLCGSHLVEALYLVCGERGFFYPK	17.6 % rel to HI
A8R, B3E, desB27, B29K(N(eps)tetradecanedioyl-gGlu-2×OEG), desB30 human insulin (ligand, B29K (residue 28 of the desB27 chain) acylated on the epsilon nitrogen with tetradecanedioyl-gGlu-2×OEG, also called Ex. No. 10) chain 1: not shown chain 2: FVEQHLCGSHLVEALYLVCGERGFFYPK	10.4 % rel to HI
A21A, B3Q, desB27, B29K(N(eps)hexadecanedioyl-4×gGlu), desB30 human insulin (ligand, B29K (residue 28 of the desB27 chain) acylated on the epsilon nitrogen with hexadecanedioyl-4×gGlu, also called Ex. No. 23) chain 1: not shown chain 2: FVQQHLCGSHLVEALYLVCGERGFFYPK	4.5 % rel to HI
A21A, B3Q, desB27, B29K(N(eps)hexadecanedioyl-gGlu-2×OEG), desB30 human insulin (ligand, B29K (residue 28 of the desB27 chain) acylated on the epsilon nitrogen with hexadecanedioyl-gGlu-2×OEG, also called Ex. No. 24) chain 1: not shown chain 2: FVQQHLCGSHLVEALYLVCGERGFFYPK	11.5 % rel to HI
A21A, B3Q, desB27, B29K(N(eps)tetradecanedioyl-4×gGlu), desB30 human insulin (ligand, B29K (residue 28 of the desB27 chain) acylated on the epsilon nitrogen with tetradecanedioyl-4×gGlu, also called Ex. No. 9) chain 1: not shown chain 2: FVQQHLCGSHLVEALYLVCGERGFFYPK	13 % rel to HI
A21A, B3Q, desB27, B29K(N(eps)tetradecanedioyl-gGlu-2×OEG), desB30 human insulin (ligand, B29K (residue 28 of the desB27 chain) acylated on the epsilon nitrogen with tetradecanedioyl-gGlu-2×OEG, also called Ex. No. 17) chain 1: not shown chain 2: FVQQHLCGSHLVEALYLVCGERGFFYPK	26.3 % rel to HI
A21G, B3E, desB27, B29K(N(eps)tetradecanedioyl-gGlu-2×OEG), desB30 human insulin (ligand, B29K (residue 28 of the desB27 chain) acylated on the epsilon nitrogen with tetradecanedioyl-gGlu-2×OEG, also called Ex. No. 6) chain 1: not shown chain 2: FVEQHLCGSHLVEALYLVCGERGFFYPK	6.6 % rel to HI
A21A, B3E, desB27, B29K(N(eps)tetradecanedioyl-4×gGlu), desB30 human insulin (ligand, B29K (residue 28 of the desB27 chain) acylated on the epsilon nitrogen with tetradecanedioyl-4×gGlu, also called Ex. No. 8) chain 1: not shown chain 2: FVEQHLCGSHLVEALYLVCGERGFFYPK	10.8 % rel to HI
A21A, B3E, desB27, B29K(N(eps)hexadecanedioyl-4×gGlu), desB30 human insulin (ligand, B29K (residue 28 of the desB27 chain) acylated on the epsilon nitrogen with hexadecanedioyl-4×gGlu, also called Ex. No. 16) chain 1: not shown chain 2: FVEQHLCGSHLVEALYLVCGERGFFYPK	5.1 % rel to HI
